Reference: PMC4336329 (PLoS ONE, 2015)
In all, about 310,000 compounds went through this assay and about 2,200 (0.71%) showed an effect of 50% or more. Effects have a minus sign here. This is one part of the list.

target: human ether-à-go-go-related gene (hERG) potassium channel (human, UniProt Q12809); experiment: primary screen, population patch clamp on CHO cells stably expressing hERG
Sequence (Q12809 whole entry, looked up): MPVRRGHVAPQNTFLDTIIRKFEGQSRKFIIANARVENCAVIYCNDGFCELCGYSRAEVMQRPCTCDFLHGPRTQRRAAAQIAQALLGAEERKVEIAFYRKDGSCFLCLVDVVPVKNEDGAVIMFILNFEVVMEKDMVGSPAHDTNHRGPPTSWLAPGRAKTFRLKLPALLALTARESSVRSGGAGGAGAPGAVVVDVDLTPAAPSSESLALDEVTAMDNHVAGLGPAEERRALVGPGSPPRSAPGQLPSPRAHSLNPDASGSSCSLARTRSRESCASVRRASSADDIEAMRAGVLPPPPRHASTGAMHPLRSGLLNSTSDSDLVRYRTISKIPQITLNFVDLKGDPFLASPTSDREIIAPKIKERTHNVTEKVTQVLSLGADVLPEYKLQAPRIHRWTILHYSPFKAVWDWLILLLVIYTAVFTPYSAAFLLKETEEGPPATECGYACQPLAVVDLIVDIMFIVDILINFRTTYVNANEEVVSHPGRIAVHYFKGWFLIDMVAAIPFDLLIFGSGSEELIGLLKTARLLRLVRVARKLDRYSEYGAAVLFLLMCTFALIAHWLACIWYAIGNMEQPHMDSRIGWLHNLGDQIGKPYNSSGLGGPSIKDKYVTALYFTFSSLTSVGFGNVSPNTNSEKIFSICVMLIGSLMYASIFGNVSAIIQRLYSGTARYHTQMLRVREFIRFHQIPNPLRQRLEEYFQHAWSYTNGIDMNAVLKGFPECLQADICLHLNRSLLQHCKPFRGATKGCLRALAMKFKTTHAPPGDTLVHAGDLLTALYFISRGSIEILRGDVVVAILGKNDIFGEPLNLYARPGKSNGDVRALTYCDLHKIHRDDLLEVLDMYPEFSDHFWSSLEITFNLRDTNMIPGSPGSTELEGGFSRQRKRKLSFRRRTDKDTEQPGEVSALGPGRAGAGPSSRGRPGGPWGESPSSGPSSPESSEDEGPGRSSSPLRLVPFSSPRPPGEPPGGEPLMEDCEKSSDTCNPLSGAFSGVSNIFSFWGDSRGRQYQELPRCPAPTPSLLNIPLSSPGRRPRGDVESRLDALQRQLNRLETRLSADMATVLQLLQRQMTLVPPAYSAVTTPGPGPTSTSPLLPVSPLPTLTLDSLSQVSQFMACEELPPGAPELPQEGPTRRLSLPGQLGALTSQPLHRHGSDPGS

**Q.** For `O=C(CN1CCN(C(=O)c2ccco2)CC1)Nc1cc(Cl)ccc1Cl`, which “hERG current change (%, negative = inhibition) at 1uM” value is on record?
**A.** Its value is -8.91%.

**Q.** With `CC(=O)Nc1ccc2nc(-c3ccco3)[nH]c2c1` as the compound, how does the “hERG current change (%, negative = inhibition) at 1uM” value read?
**A.** Its value is 4.83%.

**Q.** With `Cc1ccc(S(=O)(=O)N2CCC(C(=O)Nc3cc(C(F)(F)F)ccc3N3CCOCC3)CC2)cc1C` as the compound, how does the “hERG current change (%, negative = inhibition) at 1uM” value read?
**A.** The value was 8.78%.

**Q.** `COC(=O)C(/C=N/OCc1ccc([N+](=O)[O-])cc1)NC(=O)c1cccc(Cl)c1` (stereo not shown) was tested. Which “hERG current change (%, negative = inhibition) at 1uM” value did it give?
**A.** The value was 5.64%.

**Q.** Which “hERG current change (%, negative = inhibition) at 1uM” value does the source give for `COc1cc(OC)cc(C(=O)OCC(=O)NC(c2ccccc2)c2ccccc2)c1` here?
**A.** Its value is 7.59%.

**Q.** For `O=C(c1cc2cc([N+](=O)[O-])ccc2oc1=O)N1CCOCC1`, which “hERG current change (%, negative = inhibition) at 1uM” value is on record?
**A.** Its value is 7.86%.

**Q.** For `Cc1ccc(N(CC(=O)N/N=C/c2cccs2)S(C)(=O)=O)cc1`, which “hERG current change (%, negative = inhibition) at 1uM” value is on record?
**A.** Its value is 7.64%.

**Q.** Which “hERG current change (%, negative = inhibition) at 1uM” value does the source give for `O=C1c2ccccc2-c2onc3c(N4CCN(CCO)CC4)cc(N4CCN(C(=O)c5ccco5)CC4)c1c23` here?
**A.** Its value is 4.31%.

**Q.** Which “hERG current change (%, negative = inhibition) at 1uM” value does the source give for `CCOC(=O)[C@H]1[C@H]2COc3ccc(Br)cc3[C@@H]2N2C(=O)CN(CC3CCCO3)C(=O)[C@@]12C` (stereo partly shown) here?
**A.** Its value is 2.38%.

**Q.** Which “hERG current change (%, negative = inhibition) at 1uM” value does the source give for `CC(=O)c1ccc(NC(=O)C2CCN(S(=O)(=O)c3ccc4c(c3)N(C(C)=O)CCO4)CC2)cc1` here?
**A.** Its value is 12.1%.

**Q.** For `CCOC(=O)c1cnc2c(C)c(Cl)ccc2c1N1CCN(CC)CC1.Cl`, which “hERG current change (%, negative = inhibition) at 1uM” value is on record?
**A.** Its value is 10.4%.

**Q.** `Cc1n(CC(=O)c2ccc(F)cc2)c2ccccc2[n+]1C.[Br-]` was tested. Which “hERG current change (%, negative = inhibition) at 1uM” value did it give?
**A.** The value was 14.5%.

**Q.** For `Cc1nc(Cl)c(C(=O)NC(=O)NCc2ccccc2)c(C)c1Cl`, which “hERG current change (%, negative = inhibition) at 1uM” value is on record?
**A.** The value was 7.92%.

**Q.** For `Cc1cc(C(=O)CSc2nc(N)cc(N)n2)c(C)n1CCc1ccc(F)cc1`, which “hERG current change (%, negative = inhibition) at 1uM” value is on record?
**A.** Its value is -6.2%.

**Q.** How did the “hERG current change (%, negative = inhibition) at 1uM” value turn out when `N#Cc1ccc(C(=O)N/N=C/c2cn(CC(=O)O)c3ccccc23)c(F)c1` was run?
**A.** The value was 2.12%.

**Q.** For `O=[N+]([O-])c1cccnc1NCCNc1ncc(C(F)(F)F)cc1Cl`, which “hERG current change (%, negative = inhibition) at 1uM” value is on record?
**A.** Its value is 8.83%.

**Q.** How did the “hERG current change (%, negative = inhibition) at 1uM” value turn out when `CCc1c(C(=O)N/N=C/c2cn[nH]c2-c2ccc(F)cc2)csc1C` was run?
**A.** The value was 16.4%.

**Q.** Which “hERG current change (%, negative = inhibition) at 1uM” value does the source give for `Cc1ncsc1CCC(=O)N1CCCC(C(=O)c2cccc(Cl)c2)C1` (stereo not shown) here?
**A.** The value was 15.7%.

**Q.** Which “hERG current change (%, negative = inhibition) at 1uM” value does the source give for `O=C1C2C3C=CC(C3)C2C(=O)N1c1ccc(Cc2ccncc2)cc1` (stereo not shown) here?
**A.** The value was 0.626%.

**Q.** `Cc1cccc(NC(=O)COC(=O)c2ccc([N+](=O)[O-])o2)c1C` was tested. Which “hERG current change (%, negative = inhibition) at 1uM” value did it give?
**A.** The value was 4.18%.

**Q.** `CCc1cc(OCCCCNCc2ccccc2)ccc1Cl.O=C(O)C(=O)O` was tested. Which “hERG current change (%, negative = inhibition) at 1uM” value did it give?
**A.** The value was 3.91%.

**Q.** With `Cc1cc(OC(C)C(=O)N(Cc2ccco2)C2CCS(=O)(=O)C2)cc(C)c1Cl` (stereo not shown) as the compound, how does the “hERG current change (%, negative = inhibition) at 1uM” value read?
**A.** The value was 0.951%.
